# Measured values from the supplement of paper PMC8728848.
# The list shows a part of the results.
# B1: PX14343B-bfa-546-20-546 (Bacteroides fragilis) (protein)
# chain: CDLERYPLTDLSEETFWNSESNAELALTSLYRGSLTDGVEYNPSDWWSYHGMIMMEHLSDNAFDRRGENNPFFKISSGNLTADNAFIKRYWETSYKRIGYCNRFLVGIQNSSESEKKTRMIAEARFLRATQYFYLASYFKNVPLVENVLTGEEANNVTKTSQADILKWCVTEFTAAAADLPRFSAIPAGEAGRACKQAALAFLGRTCMLQKDWKSGAKAFHDIMELGDNAINANYQELFYPSTGTSNKENIFYIQYLENYLGTGLPQHALSAKDGGWSLVNPAADLYESYEFKDGTPFSYDDPRYDPSNLGKDRDPRLDYTIYYNGAIFMGTEYKMSPDYSAAKKEKLDYTSEASRTGFMMRKYFEESTPINDVQSANGLTPVIRYAEVLLGYLECLVEDNQTITQGILDETINAVRGRASVNMPPVTEVTPAKLREIVRHERRIELAMEGIRYWDIMRWGIAHEVLSQKIWGAPYPGSTQYATTTKEVDPTGNYRWYVGKRAFRNPTDYTWPIPQSEQNINPNLRD
# Legend:
# Test in all cases: glycan array binding signal (z-score within array); higher = stronger binding
# Settings in all cases: glycan notation: IUPAC condensed, linker removed
# [1] = target: Fuc(a1-2)Gal
# Summary of the method: (§1)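 Arrays were curated from the Consortium for Functional Glycomics database, 3228 in total, and kept only where the protein sequence was available. Binding is expressed as a within-array Z-score. This score was averaged across arrays of the same protein sequence at different concentrations or buffers and across linkers, and negative values can be read as non-binding.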
# [2] = target: Fuc(a1-2)Gal(b1-3)GalNAc
# Summary of the method: as §1
# [3] = target: Fuc(a1-2)Gal(b1-3)GalNAc(a1-3)[Fuc(a1-2)]Gal(b1-4)Glc
# Summary of the method: as §1
# [4] = target: Fuc(a1-2)Gal(b1-3)GalNAc(a1-3)[Fuc(a1-2)]Gal(b1-4)GlcNAc
# Summary of the method: as §1
# [5] = target: Fuc(a1-2)Gal(b1-3)GalNAc(b1-3)Gal
# Summary of the method: as §1
# [6] = target: Fuc(a1-2)Gal(b1-3)GalNAc(b1-3)Gal(a1-4)Gal(b1-4)Glc
# Summary of the method: as §1
# [7] = target: Fuc(a1-2)Gal(b1-3)GalNAc(b1-4)[Neu5Ac(a2-3)]Gal(b1-4)Glc
# Summary of the method: as §1
# [8] = target: Fuc(a1-2)Gal(b1-3)GlcNAc
# Summary of the method: as §1
# [9] = target: Fuc(a1-2)Gal(b1-3)GlcNAc(b1-2)Man(a1-3)[Fuc(a1-2)Gal(b1-3)GlcNAc(b1-2)Man(a1-6)]Man(b1-4)GlcNAc(b1-4)GlcNAc
# Summary of the method: as §1
# [10] = target: Fuc(a1-2)Gal(b1-3)GlcNAc(b1-2)Man(a1-3)[Fuc(a1-2)Gal(b1-3)GlcNAc(b1-2)Man(a1-6)]Man(b1-4)GlcNAc(b1-4)[Fuc(a1-6)]GlcNAc
# Summary of the method: as §1
# [11] = target: Fuc(a1-2)Gal(b1-3)GlcNAc(b1-3)Gal(b1-4)Glc
# Summary of the method: as §1
# [12] = target: Fuc(a1-2)Gal(b1-3)GlcNAc(b1-3)GalNAc
# Summary of the method: as §1
# [13] = target: Fuc(a1-2)Gal(b1-3)GlcNAc(b1-3)[Fuc(a1-2)Gal(b1-3)GlcNAc(b1-6)]GalNAc
# Summary of the method: as §1
# [14] = target: Fuc(a1-2)Gal(b1-3)GlcNAc(b1-3)[Gal(b1-4)GlcNAc(b1-6)]Gal(b1-4)Glc
# Summary of the method: as §1
# [15] = target: Fuc(a1-2)Gal(b1-3)GlcNAc(b1-3)[Neu5Ac(a2-6)Gal(b1-4)GlcNAc(b1-6)]Gal(b1-4)Glc
# Summary of the method: as §1
# [16] = target: Fuc(a1-2)Gal(b1-3)GlcNAc6S
# Summary of the method: as §1
# [17] = target: Fuc(a1-2)Gal(b1-3)[Fuc(a1-4)]GlcNAc
# Summary of the method: as §1
# [18] = target: Fuc(a1-2)Gal(b1-3)[Fuc(a1-4)]GlcNAc(b1-2)Man(a1-3)[Fuc(a1-2)Gal(b1-3)[Fuc(a1-4)]GlcNAc(b1-2)Man(a1-3)]Man(b1-4)GlcNAc(b1-4)GlcNAc
# Summary of the method: as §1
# [19] = target: Fuc(a1-2)Gal(b1-3)[Fuc(a1-4)]GlcNAc(b1-2)Man(a1-3)[Fuc(a1-2)Gal(b1-3)[Fuc(a1-4)]GlcNAc(b1-2)Man(a1-6)]Man(b1-4)GlcNAc(b1-4)[Fuc(a1-6)]GlcNAc(b1-4)[Fuc(a1-6)]GlcNAc
# Summary of the method: as §1
# [20] = target: Fuc(a1-2)Gal(b1-3)[Fuc(a1-4)]GlcNAc(b1-3)[Fuc(a1-3)[Gal(b1-4)]GlcNAc(b1-6)]Gal(b1-4)Glc
# Summary of the method: as §1
# [21] = target: Fuc(a1-2)Gal(b1-3)[Fuc(a1-4)]GlcNAc(b1-3)[Gal(b1-4)GlcNAc(b1-6)]Gal(b1-4)Glc
# Summary of the method: as §1
# [22] = target: Fuc(a1-2)Gal(b1-4)Glc
# Summary of the method: as §1
binder,measurement,setting,value
B1,glycan array binding signal (z-score),[1],-0.114
same,glycan array binding signal (z-score),[2],-0.122
same,glycan array binding signal (z-score),[3],-0.123
same,glycan array binding signal (z-score),[4],-0.115
same,glycan array binding signal (z-score),[5],-0.117
same,glycan array binding signal (z-score),[6],-0.124
same,glycan array binding signal (z-score),[7],-0.122
same,glycan array binding signal (z-score),[8],-0.118
same,glycan array binding signal (z-score),[9],-0.099
same,glycan array binding signal (z-score),[10],-0.078
same,glycan array binding signal (z-score),[11],-0.122
same,glycan array binding signal (z-score),[12],-0.107
same,glycan array binding signal (z-score),[13],-0.126
same,glycan array binding signal (z-score),[14],-0.107
same,glycan array binding signal (z-score),[15],-0.125
same,glycan array binding signal (z-score),[16],-0.12
same,glycan array binding signal (z-score),[17],-0.133
same,glycan array binding signal (z-score),[18],-0.098
same,glycan array binding signal (z-score),[19],-0.114
same,glycan array binding signal (z-score),[20],-0.123
same,glycan array binding signal (z-score),[21],-0.116
same,glycan array binding signal (z-score),[22],-0.115
